Data reported in the supplement of paper PMC12632987.
Whole data set: some 1,800 sequences, median “median log2 fold change of GCK-ALFA target abundance (FLAG IP / Myc IP barcode read proportion)” near 0.14, cut for the lowest 2% near -0.84. The list shows a part of the results.

T1: TRAF2, Q12933
T1 chain: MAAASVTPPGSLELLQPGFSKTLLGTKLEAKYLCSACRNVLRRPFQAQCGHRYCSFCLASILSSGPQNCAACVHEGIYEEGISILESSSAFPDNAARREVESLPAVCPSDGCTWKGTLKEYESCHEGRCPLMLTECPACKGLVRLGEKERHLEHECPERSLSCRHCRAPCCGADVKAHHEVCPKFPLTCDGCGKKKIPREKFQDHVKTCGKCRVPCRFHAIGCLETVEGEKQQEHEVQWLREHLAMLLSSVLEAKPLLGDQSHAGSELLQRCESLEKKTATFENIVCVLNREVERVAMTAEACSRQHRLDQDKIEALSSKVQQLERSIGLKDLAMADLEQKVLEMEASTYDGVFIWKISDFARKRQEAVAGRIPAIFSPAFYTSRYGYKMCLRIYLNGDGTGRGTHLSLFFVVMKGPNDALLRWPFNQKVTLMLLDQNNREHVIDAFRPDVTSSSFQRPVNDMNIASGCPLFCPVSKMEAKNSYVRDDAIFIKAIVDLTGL

B1: traf2_out_1_156_896 (protein)
chain: MSPEEQQAAIHARLKDPEVRAAFVDAALTRRELRELARELREAGGDPEVIERLEEAARRIHEAMNALLSSEPEDVEAKLAELKELIREGRELIREAEREL
B2: traf2_out_6_156_2440 (protein)
chain: TAEAIRAEAEKAIKAEIKALAASSEEKHIIHINRIAGTVYRALRRLRAAGASLEELRAFAEELRAVAKEEAKKNGLDESTQNLLLSSLNAVFDVALREAA
B3: traf2_out_14_154_1267 (protein)
chain: DELFDELEYYSGMSRLYESVVDAMATADVAETLALLDAATALLVARVPEKAAEIEAEAARIRAALNGSPEERAALREELEKKSEEYSKKAREYYKKIEEK
B4: traf2_out_12_187_965 (protein)
chain: SVEEELLRAAEEAVRRAKRALEEAAPERPEFKRLLEKLEELEELYKEDPSIASDLLVAASAILRAVRLFEAGAPEEEIDAAIAEAERILEEALERARKRK
B5: traf2_out_19_138_1959 (protein)
chain: SALQEVEDALADVGNAIRETIAAIQELEEKAKTKSPEEQAKVAAFSAKVLARLEAIREKASAAYNKVLKDPSQAPAAIKELKALLKEVEALLKEVKKELA
B6: traf2_out_20_3_2154 (protein)
chain: SELEKEADAARDKAIALLREAAALADPATAAELAALRDRVEASKSLSYSDRLVVLSEVRRQVLALAEAARAAGDAELAAVLEKAADALNKAMNLTYKIIE
B7: traf2_out_11_155_673 (protein)
chain: KKKQELNNKLVDELTEVSDKLKEEVKAILKAAAAAHPAHAAALAAVIASSKTLSGTSFARVAAQTLEALGLADAAAEVKKLLEKAQKEMNKIYKEYEKKL
B8: traf2_out_18_117_1808 (protein)
chain: SELERALEEFRRAVEEFERVRRRAERVAGRLLEKHPYNLPEEASDALVEFGELKRRAEELVLEAERNRDDLERLKEIVEEMRRLTEEMERVLERLEELLK
B9: traf2_out_6_169_2492 (protein)
chain: MEAEELRKEAERHLKTAKELVEIAKTIYKQAKENKKYERIDDYIEALETMRNAIKRHYDEAIKYYEKLGEEEKAEELKKEKEEVLKEIDEMIEELKKLKK
B10: traf2_out_11_131_666 (protein)
chain: MDPVAMAKTVAERVDERLELAKTLSPEEAHRLARQSLDTIEALAEYLKEHVDTMSEEDVEEAVKILEESVEKILEFDPSVKEEAEEVRKALEELKKAAKA
B11: traf2_out_11_169_817 (protein)
chain: EEAEKNRKINDFALELNDEAKKELLEHAEKLAKEAGLDVEEVKAIFEKNKNKSLSAVAAALIKYFKSKGKEEAAKAVLEKYEELKDKINKEATAKIKELE
B12: traf2_out_8_15_2552 (protein)
chain: SIEENAEKDIEKLKALSDGDKESLINTLLGTAKAELRYAKILKEEGRKEEALNTLEAARIYADAALKLAEEINSPKLEEIKKEVEEIHKEIEELKKEIEE
B13: traf2_out_11_155_769 (protein)
chain: SKKLEINQEFVDKVMEIRDEAIEKMRKLIEEDKSLTEEEKKRLLEILEKNKSLGLRTAALSLIREAKSLGKEELAEKIEEILKEAQKKMSEEAIKADKEI
B14: traf2_out_11_155_724 (protein)
chain: EKKRKAQNEIVDHSLEIGDELLKKVEEIIEKIEKKDPEVAAELRKVVEEHKKFSNRSAARAAIDLLKKRGYEEEAKELEKALEEAQKKMSKFIKEVEEKL
B15: traf2_out_6_156_2418 (protein)
chain: MVEKIFKAAMKKIEELIKKLAEASEEKKIKYISEIAGTFYRALQELREAGASLEEIEAFAKRLLEETEKALKEAGLDESTRNLVLSSLNAVATVAIEEAK
B16: traf2_out_1_158_920 (protein)
chain: DTKVNLILATIKLVTDAQIQSAKDDGKEEAAKEIAKLGEKILELAKKLLEEEKKSVEELIKAIKELTEEAKKTVDEETAKEIERLERQVISGIKQVDKLM
B17: traf2_out_11_155_750 (protein)
chain: SEKLELLNKMTNEITDIFDEAREKADEIVEEAMEEHPEHAAELEAVREASRNYSPRSYILLMRDKFEELGLEEYAEKLKELIEESQKKANEIVKKTEEEL
B18: traf2_out_15_48_1340 (protein)
chain: STEELREVASEIADEIDAKKDEIAERLEALRPTAAPEVRAPLDRAIEAARHGHGNNTVLALLEELEPLLTPEQRAIVTELRDELAAVVREASRRMAEVLK
B19: traf2_out_11_104_643 (protein)
chain: LTREQAREFNDFAMEANDKAKALLAEVAAFLEAAGHAEEAAKVKALLAHPGSGISSYKNLLEELLPKLDAESKAKAEKAIKELEKLQKEVSEKLNELLEK
B20: traf2_out_17_178_1691 (protein)
chain: SKEEERKKISEYTDKLIDLTEATGRELLARARADGTVSPAELAALEAAIRRGSNRTFLALARRIVPKLATAAEAAALLAAWEAEARELAKKIAEAYKKYE
B21: traf2_out_5_189_2325 (protein)
chain: SAREAEQAALRARARRLTKRATELLNELKEKGASYEEIIKALLEELKKLSIEDANLYRGIAYAILLGDALANNDEELIKAAEEFREKATKLIEERKKEAA
B22: traf2_out_6_3_2520 (protein)
chain: MEESIRRDARTVLENMGITTAEQLKRLVEANVNAVKKLVSRPDVDEADLAGARSVLALTRAMVDVAAETLPDLTPEQVAEMKALIKEAEELVEKKRKELE
B23: traf2_out_13_95_1181 (protein)
chain: SEETKKKINEIADKMIEEVEKVLTEAAEKVKDDPEVKAALDAIKETARTKGISTAIHELEKLAKANPKHKELLKEALEKIKEIRREAGKEVAKIIKEEKE
B24: traf2_out_9_108_2576 (protein)
chain: MSEEEKLEEIFEKILKLAEEFLKENDLSEELKEDLLAAIEQARKLYEEGEKRTAIILLAISLANISFKLGEEVVEKVLKRLKEIDKRAYSAAERMVKLLK
B25: traf2_out_20_38_2003 (protein)
chain: SEEEEEERKLEEIIEVANEAYDEATERIAAMVAAGKTVEEIAAEVRAEVTRLLDAAGLEEERDELLADIDRALASPNALRLFARILARARALVKQKELNK
B26: traf2_out_16_104_1380 (protein)
chain: AAAKQAAFDAIIARLNAIADEANRLANELYELMKTASPEKKVELSDALVRVSELRRRALQAAIDAEQARKDGGDLAAAQATLAELEAELAKLRKEVEALK
B27: traf2_out_11_169_877 (protein)
chain: EEAEFNRELNDFALELNDEAKEKLKEFSLKLAKELGLDVEEIEKIFEKNKNKSLSYVASELIRYFKEKGKEEAAQEVLEKYEELKEEINKKFSEKLKELK
B28: traf2_out_6_156_2381 (protein)
chain: KKEEILKEAKEEIEKQIKALSEAPEEKKIAYINKIAGTVYKALQKLRELGASLEELKEFTERIKEFVKKQLDKYGLDESTKNLILGSINAVGEVALRNAA
B29: traf2_out_19_16_1967 (protein)
chain: MEEEVEAIEERLERIEEEVERLERYFEENEETLTREELSDLLVELSELRREAQELRERLLELEGLDPERVEALIERAEEIIERAQRLMNRVVDKYLELLK

Molecular target: T1, TRAF2, Q12933
Assay: median log2 fold change of GCK-ALFA target abundance (FLAG IP / Myc IP barcode read proportion) (log2 ratio); each designed protein is fused to an ALFA-tag nanobody in HEK293 cells to bring the named protein to FLAG-tagged glucokinase (GCK); Myc marks an untargeted standard; higher = target protein stabilised (more abundant)
Conditions: target protein: 3xFLAG-MCP-GCK-ALFA reporter; HEK293 landing pad (RPLP)
Summary of the method: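 HEK293 landing-pad cells received a recombined binder library fused to the ALFA nanobody and were induced with 2 μg mL^−1 doxycycline, then transfected with a plasmid encoding a FLAG-tagged target and a Myc-tagged standard. Lysates were collected after 48 h for anti-FLAG and anti-Myc immunoprecipitation, and the circular RNA barcodes were reverse transcribed, amplified and sequenced. Target abundance for each binder is the median log2 ratio of FLAG to Myc barcode read proportions. Barcodes had to reach a proportion of at least 10^−7 in both replicates, each binder needed at least 3 barcodes per replicate, a pseudocount of 10^−6 was applied, and the two replicates were pooled.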
With B1 the “median log2 fold change” value was -0.0301.
In the case of B2, the “median log2 fold change” value is reported as -0.00681.
For B3, the “median log2 fold change” value was 0.222.
With B4 the “median log2 fold change” value was 0.22.
B5 was tested, and the “median log2 fold change” value was 0.126.
With B6 the “median log2 fold change” value was 0.287.
B7 was tested, and the “median log2 fold change” value was -0.0551.
For B8, the “median log2 fold change” value was 0.155.
With B9 the “median log2 fold change” value was -0.229.
For B10, the “median log2 fold change” value was 0.0254.
For B11, the “median log2 fold change” value was 0.183.
In the case of B12, the “median log2 fold change” value is reported as 0.00326.
For B13, the “median log2 fold change” value was 0.15.
In the case of B14, the “median log2 fold change” value is reported as 0.232.
B15 was tested, and the “median log2 fold change” value was -0.284.
With B16 the “median log2 fold change” value was 0.0658.
B17 was tested, and the “median log2 fold change” value was 0.1.
For B18, the “median log2 fold change” value was 0.311.
With B19 the “median log2 fold change” value was 0.285.
B20 was tested, and the “median log2 fold change” value was -0.561.
B21 was tested, and the “median log2 fold change” value was -0.433.
With B22 the “median log2 fold change” value was -0.989.
In the case of B23, the “median log2 fold change” value is reported as 0.0976.
For B24, the “median log2 fold change” value was -0.295.
B25 was tested, and the “median log2 fold change” value was -0.767.
For B26, the “median log2 fold change” value was 0.599.
In the case of B27, the “median log2 fold change” value is reported as 0.412.
B28 was tested, and the “median log2 fold change” value was -0.0372.
In the case of B29, the “median log2 fold change” value is reported as -0.121.
